In PubChem BioAssay AID1030 (National Center for Advancing Translational Sciences (NCATS), 2008):
Where “and” joins values, the source holds several entries; their conditions need not be identical. Equal entries are not always repeated. Out of some 220,000 compounds screened, about 16,000 (7.3%) were called active. The shares of active, inactive and inconclusive entries below differ from those in the screen. The call rests on the fitted dose curve; in most records, active means well fitted inhibition curve with a large enough effect (not every such curve was filed as active); inconclusive means small, poorly fitted or top-dose-only effect, or another doubt; inactive means no such curve, though single readings can be large or run the other way. Potencies of inconclusive entries are left out as doubtful fits.

The compounds below were run against Aldehyde dehydrogenase 1A1 (Homo sapiens) (UniProt P00352) (assay: qHTS Assay for Inhibitors of Aldehyde Dehydrogenase 1 (ALDH1A1)). Conditions: Purified ALDH1A1, NADH fluorescence, propionaldehyde substrate; series mostly up to 75.3 µM; activity, negative = inhibition: at the top concentration.
Sequence of UniProt P00352 (P00352 whole entry, looked up): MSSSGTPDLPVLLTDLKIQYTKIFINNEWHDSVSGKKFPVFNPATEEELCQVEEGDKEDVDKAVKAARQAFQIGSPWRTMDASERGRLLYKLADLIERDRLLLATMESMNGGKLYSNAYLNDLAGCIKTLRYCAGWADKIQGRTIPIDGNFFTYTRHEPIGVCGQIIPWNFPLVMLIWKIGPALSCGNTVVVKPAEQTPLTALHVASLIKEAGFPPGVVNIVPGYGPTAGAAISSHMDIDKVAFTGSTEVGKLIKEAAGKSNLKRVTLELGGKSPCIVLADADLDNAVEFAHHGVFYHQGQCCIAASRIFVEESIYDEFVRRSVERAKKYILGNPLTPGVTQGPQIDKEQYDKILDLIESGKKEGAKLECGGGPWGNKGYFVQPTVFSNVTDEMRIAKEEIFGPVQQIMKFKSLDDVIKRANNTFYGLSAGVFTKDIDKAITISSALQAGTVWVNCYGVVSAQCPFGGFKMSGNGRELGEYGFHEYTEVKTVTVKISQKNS
Potency means the concentration at half of the fitted maximal effect; tags describe the fitted curve by direction and shape.
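Wherever activity, negative = inhibition is given: plate controls were no enzyme wells and a reference inhibitor.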

Row | SMILES | Potency | activity, negative = inhibition
1 | Cc1ccc(C(=O)N2c3ccc(F)cc3CCC2C)o1 (stereo not drawn) | inconclusive [inhibitor, single point] | –
2 | Cc1ccc(S(=O)(=O)c2c(N)n(NC(=O)c3ccco3)c3nc4ccccc4nc23)cc1 | inconclusive [inhibitor, partial curve] | –
3 | N=C1C(c2nc3ccccc3s2)=C(O)CN1NC(=O)c1ccc([N+](=O)[O-])cc1 | active: 1.78 µM | –
4 | CCC(=O)N1CCN(CCN=CC2=C(O)CC(c3ccc(OC)cc3)CC2=O)CC1 (stereo not drawn) | – | inactive: 10%
5 | O=C(NCc1ccccc1Cl)C1CCN(S(=O)(=O)N2CCC3(CC2)OCCO3)CC1 | inconclusive [inhibitor, single point] | –
6 | Cc1ccn2c(=O)cc(C)nc2c1 | inconclusive [inhibitor, partial curve] | –
7 | N#Cc1ccc(CSc2nnc(Cc3cccs3)n2Cc2ccco2)cc1 | active: 11.2 µM | –
8 | COc1ccc(CN(CC2CCC(C(=O)O)CC2)C(=S)Nc2ccccc2OC)cc1 (stereo not drawn) | inconclusive [inhibitor, single point] | –
9 | c1ccc(N2CCN(Cc3cn4cccnc4n3)CC2)cc1 | – | inactive: 6.46%
10 | COc1ccc(NC(=O)c2cc(C)cc(C)c2)cc1[N+](=O)[O-] | inconclusive [inhibitor, single point] | –
11 | COc1ccccc1NC(=S)NC(=O)c1ccc(Cn2cc(Br)cn2)cc1 | inconclusive [inhibitor, single point] | –
12 | CCN1CCN(C(=O)N[C@H](C(=O)N[C@@H]2C(=O)N3C(C(=O)O)=C(CSc4nnnn4C)CS[C@@H]23)c2ccc(O)cc2)C(=O)C1=O | – | inactive: 9.7% [at 20.9 µM]
13 | O=C1C2C3C=CC(C2C(=O)N1C1CCCCC1)C1C(=O)N(C2CCCCC2)C(=O)C31 (stereo not drawn) | active: 2.82 µM | –
14 | CCOc1ccccc1/C=N\Nc1cnn(Cc2ccccc2)c(=O)c1Cl | inconclusive [inhibitor, single point] | –
15 | Cc1cc(C)nc(N2CCC(C(=O)Nc3cccc(C(F)(F)F)c3)CC2)n1 | inconclusive [inhibitor, single point] | –
16 | O=c1c(O)c(-c2cc(O)c(O)c(O)c2)oc2cc(O)cc(O)c12 | active: 8.91 µM and active: 12.6 µM and active: 3.55 µM | –
17 | CSc1nc2ccc(NC(=O)C3CC(=O)N(Cc4ccccc4)C3)cc2s1 (stereo not drawn) | inconclusive [inhibitor, single point] | –
18 | Cc1ccc(S(=O)(=O)NCC(=O)N/N=C/c2ccc(Cl)cc2)cc1 | inconclusive [inhibitor, single point] | –
